Reference: PubChem BioAssay AID2676 (National Center for Advancing Translational Sciences (NCATS), 2010)
The campaign covered roughly 370,000 compounds. About 1,100 (0.3%) were called active. About 1% were inconclusive and are not listed. Calls come from the whole dose curve; as a rule, active = well fitted activation curve with a large enough effect; inconclusive = small, poorly fitted or top-dose-only effect; inactive = flat fitted curve, though single readings scatter. The entries are a selection whose mix differs from that of the whole data set. More than one record can exist for a structure, and the calls need not agree.

Target: Relaxin receptor 1 (Homo sapiens) (UniProt Q9HBX9)
Test: qHTS Assay for Agonists of the Relaxin Receptor RXFP1; note: nearly all actives have a fitted effect of over 60% in size
Details: HEK293T-RXFP1 cAMP TR-FRET, 30 min; series mostly up to 57.5 µM; activation: at the top concentration
How it was run: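 Agonist response is measured as cAMP accumulation in an RXFP1-transfected HEK293T line under PDE4 inhibition. Values are scaled between buffer-only and 29 nM porcine relaxin, and EC50s come from standard Hill equation fits.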
% is set by controls: 0 for no effect and ±100 for the full control effect; potency is the fitted concentration of half-maximal effect.

UniProt Q9HBX9, sequence (Q9HBX9 whole entry, looked up): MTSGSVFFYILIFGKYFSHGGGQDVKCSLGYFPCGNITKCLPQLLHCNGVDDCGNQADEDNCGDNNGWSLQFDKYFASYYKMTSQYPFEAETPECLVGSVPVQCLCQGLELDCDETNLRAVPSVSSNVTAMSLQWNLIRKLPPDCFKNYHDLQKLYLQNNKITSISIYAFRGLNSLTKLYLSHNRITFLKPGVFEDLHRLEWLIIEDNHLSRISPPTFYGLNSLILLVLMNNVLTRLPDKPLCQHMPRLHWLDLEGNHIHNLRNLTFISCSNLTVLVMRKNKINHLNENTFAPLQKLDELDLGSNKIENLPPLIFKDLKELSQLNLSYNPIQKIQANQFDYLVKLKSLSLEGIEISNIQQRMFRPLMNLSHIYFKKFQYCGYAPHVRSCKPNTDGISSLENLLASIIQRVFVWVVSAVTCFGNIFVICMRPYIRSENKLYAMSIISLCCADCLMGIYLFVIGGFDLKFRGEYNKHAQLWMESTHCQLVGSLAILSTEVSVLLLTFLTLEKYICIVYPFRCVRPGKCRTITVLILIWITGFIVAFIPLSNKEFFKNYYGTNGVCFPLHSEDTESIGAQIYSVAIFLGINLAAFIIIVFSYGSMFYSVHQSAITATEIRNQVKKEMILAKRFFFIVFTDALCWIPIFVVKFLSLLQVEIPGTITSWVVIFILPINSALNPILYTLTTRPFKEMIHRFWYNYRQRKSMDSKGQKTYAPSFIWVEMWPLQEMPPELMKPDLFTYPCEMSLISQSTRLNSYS

SMILES | activation | Potency
CSc1nc(O)c(Nc2cccc(Cl)c2)c(=O)[nH]1 | inactive: -40.7% | 
Cc1nn(CC(=O)N2CCN(c3cccc(C(F)(F)F)c3)CC2)c(=O)c2cccn12 |  | active: 35.5 µM
Cc1ccc(S(=O)(=O)NC(=O)Nc2ccc(N(C)C)cc2)cc1 | inactive: -34.9% | 
O=C(O)CCNc1ccc(NCCC(=O)O)c2c1C(=O)c1ccccc1C2=O | inactive: -115% | 
O=C(Oc1ccccc1)Oc1ccc2c(c1)oc(=O)c1ccccc12 |  | active: 7.94 µM
CCCn1c(=N)c(C(=O)NC2CCCC2)cc2c(=O)n3cccc(C)c3nc21 | inactive: 11.9% | 
COC(=O)c1sc(N2C(=O)C(O)=C(C(=O)c3ccc(C)o3)C2c2cccs2)nc1C (stereo unspecified) |  | active: 12.6 µM
O=C(Nc1cccc2ccccc12)C(=O)C1C(=O)Nc2ccccc21 (stereo unspecified) | inactive: -35.6% | 
Cc1ccc(-c2csc(/C=C3\SC(C)C(=O)N3CC(=O)Nc3ccccc3F)n2)cc1 (stereo unspecified) | inactive: -33.4% | 
CCN(CC)c1ccc2c(-c3ccc(S(=O)(=O)O)cc3S(=O)(=O)[O-])c3ccc(=[N+](CC)CC)cc-3oc2c1 |  | active: 28.2 µM
CCOC(=O)c1c(NC(=O)c2ccc(S(=O)(=O)N3CCC(C)CC3)cc2)sc2c1CCN(C(C)C)C2 | inactive: -43.1% | 
COc1ccc2nc3sc(C(=O)NCCc4ccc(Cl)cc4)cc3cc2c1 | inactive: -41.5% | 
Cc1cccc(CNC(=O)c2ccc3c(c2)N(C)CCS3)c1 | inactive: 14.6% | 
CCN(CC)S(=O)(=O)c1ccc(Cl)c(NC(=O)CSc2cccc[n+]2[O-])c1 |  | active: 25.1 µM
CCOc1ccc(NC(=O)c2sc3nc4n(c(=O)c3c2C)CCC4)cc1 | inactive: 0.506% | 
CCOC(=O)CCc1c(C)nc2c(c(C)nn2-c2ccc(C)cc2)c1C | inactive: -18.9% | 
CC1=C/C(=C(\c2cc(C)c(O)c(Br)c2)c2ccccc2S(=O)(=O)O)C=C(Br)C1=O | inactive: -52.3% | 
O=c1ccc2[n+]([O-])c3ccc(O)cc3oc-2c1 | inactive: -35.9% | 
O=C(Cn1c(=O)c2cccn2c2ccccc21)NCCc1ccccc1 | inactive: -3.61% | 
Cc1ccc(C)c(NC(=O)C2CCCN(S(=O)(=O)c3ccc4[nH]c(=O)ccc4c3)C2)c1 (stereo unspecified) | inactive: 7.71% | 
CCCCC1=CC2=C(c3ccco3)C(=O)C(C)(OC(=O)c3ccc(OC)cc3)C(=O)C2=CN1CC(C)C (stereo unspecified) |  | active: 15.8 µM
CN1CCc2c(sc(NC(=O)CSc3ccc(F)cc3)c2-c2nc3ccccc3s2)C1 | inactive: -30.3% | 
Cc1cccc2cc(C#N)c(SCC(=O)NCc3cccs3)nc12 |  | active: 12.6 µM
COc1ccc(CNC(=O)CN2C(=O)NC(C)(c3cccc(Br)c3)C2=O)cc1 (stereo unspecified) | inactive: -30.1% | 
CCc1ccc(NC(=O)Cn2ccn(-c3cccc(Cl)c3)c(=O)c2=O)cc1 | inactive: 4.43% | 
NS(=O)(=O)c1ccc(Nc2ccc([N+](=O)[O-])c3nonc23)cc1 | inactive: -35.2% | 

SMILES | activation | Potency
CCCC(=O)Nc1ncnc2c1ncn2[C@@H]1O[C@@H]2OP(=O)(O)OC[C@H]2[C@H]1OC(=O)CCC |  | active: 0.631 µM
COc1ccccc1CNC(=O)c1nn(-c2ccc(C)cc2)c(=O)c2c1c1ccccc1n2C | inactive: 9.29% | 
COc1cc2nc(SCC(=O)Nc3cccc(C)c3)n3nc(CCn4c(C)nc5ccccc54)nc3c2cc1OC |  | active: 17.8 µM
COc1cccc(C(=O)Nc2nnc(S(=O)(=O)N3CCCC3)s2)c1 | inactive: -2.66% | 
Nc1ncnc2c1ncn2[C@@H]1O[C@H](CO)[C@@H](O)[C@H]1O | inactive: 26.3% | 
CCCN(CCC)C(=O)Cn1c(=O)n(CCCCCC(=O)Nc2ccccc2)c(=O)c2sccc21 | inactive: 22.5% | 
Cc1noc(C(F)(F)F)c1C(=O)NNC(=O)c1cccc(C(F)(F)F)c1 | inactive: -52.4% | 
Cc1nn(CCCC(=O)NCc2ccccc2)c(=O)c2nccn12 |  | active: 28.2 µM
O=C1C=C(Nc2ccccc2C(=O)O)c2ccccc2C1=O | inactive: -67.9% | 
O=C1OC2(c3ccccc31)c1cc(I)c(O)c(I)c1Oc1c2cc(I)c(O)c1I | inactive: -35% | 
Cn1c2ccc(F)cc2c2nnc(SCCN3CCCCC3)nc21 | inactive: 27.9% | 
N#CCC(=O)NNc1c([N+](=O)[O-])cc(C(F)(F)F)cc1[N+](=O)[O-] | inactive: -41.6% | 
Cc1ccc(NC(=O)Cn2cc(C(=O)C3CC3)c3ccccc32)cc1 | inactive: 10% | 
CCOc1ccc(NC(=O)CSc2ncc3c(n2)-c2ccc(Cl)cc2N(Cc2ccccc2)S3(=O)=O)cc1 |  | active: 11.2 µM
CCOC(=O)c1c(NC(=O)c2ccc(S(=O)(=O)N3CCC(C)CC3)cc2)sc2c1CCN(C)C2 | inactive: -35.8% | 
CCOC(=O)CNC(=O)c1sc(NC(=O)/C=C/c2ccccc2)nc1C | inactive: -63% | 
Cc1nc(N)sc1N=Nc1c(C)n(C)n(-c2ccccc2)c1=O | inactive: -59.7% | 
Cn1c(=O)c2c(ncn2CC(=O)N/N=C/C=C/c2ccccc2[N+](=O)[O-])n(C)c1=O | inactive: 22.3% | 
Cc1cc(C)c(NC(=O)CSc2ccc(-c3ccccn3)nn2)c(C)c1 | inactive: 28.1% | 
CC1(C)Cc2nc3sc4c(SCC(=O)NC(c5ccccc5)c5ccccc5)ncnc4c3cc2CO1 |  | active: 3.16 µM
Nc1c(S(=O)(=O)O)cc(NC(=O)c2ccccc2)c2c1C(=O)c1ccccc1C2=O | inactive: -46.4% | 
CCOc1ccc(C(=O)Nc2ccc3oc(-c4cccnc4)nc3c2)cc1 | inactive: -41.7% | 
c1ccc(-c2ccc3c(c2)NCCN3)cc1 | inactive: -51.3% | 
Cc1ccc2nc(NCc3ccc(F)cc3)c3nncn3c2c1 | inactive: 20.1% | 
Cc1cc(=O)n2nc(N3CCC(C(=O)NCc4ccc(Cl)cc4)CC3)sc2n1 | inactive: 29.5% | 
CCOc1ncccc1C(=O)Nc1cccc(-c2nc3cccnc3s2)c1 | inactive: -45.2% | 

SMILES | activation | Potency
Cc1cc2c(cc3c(SCc4cccc(Cl)c4)nnc(C)n32)o1 |  | active: 22.4 µM
O=C(Nc1cccnc1Cl)c1cc(-c2ccc(Cl)cc2)on1 | inactive: 4.44% | 
Cn1cc(CCCC(=O)NCc2ccc(F)cc2)c2ccccc21 | inactive: 5.78% | 
Cn1c(=O)c2c(nc(Cc3ccc(N)cc3)n2C)n(C)c1=O |  | active: 15.8 µM
CCCCN(C)CCNC(=O)c1nn(-c2ccc(OC)cc2)c(=O)c2c1c1ccccc1n2C | inactive: 6.83% | 
COc1ccc(-c2nnn3c2nc(NCc2ccccc2)c2ccccc23)cc1 | inactive: 11.6% | 
COCCCn1c(=N)c(C(=O)NC2CCCCC2)cc2c(=O)n3ccccc3nc21 | inactive: 5.77% | 
CC1=C(C#N)C(NC(=O)c2ccccc2Cl)(C(F)(F)F)C(=O)N1 (stereo unspecified) | inactive: -0.224% | 
COc1ccc(C[C@H]2c3cc(O)c(OC)cc3CC[N+]2(C)[O-])cc1O (stereo partly specified) | inactive: -42.3% | 
CCOC(=O)c1cnc2c(Cl)c(Cl)ccc2c1NCCN1CCOCC1 | inactive: 8.79% | 
COc1ccc(C)cc1NC(=O)c1ccc2c(=O)n3c(nc2c1)CCCCC3 | inactive: -0.513% | 
CN1c2cc(Cl)ccc2-c2nc(SCC(=O)Nc3ccc(F)cc3F)ncc2S1(=O)=O |  | active: 31.6 µM
CCCCOc1cccc(C2/C(=C(\O)c3ccc4c(c3)OCCO4)C(=O)C(=O)N2CCN2CCOCC2)c1 (stereo unspecified) |  | active: 25.1 µM
NC(=O)c1cc(-c2ccccc2)nc2ccc(Br)cc12 | inactive: -101% | 
CCN1/C(=C2\C(=O)N(C)C(=S)N2c2ccccc2)C=Cc2ccccc21 | inactive: -41.2% | 
Cc1cccc(N(C)C(=O)c2cc3c(=O)[nH]c4ccc(C)cc4c3s2)c1 | inactive: -30.5% | 
Cc1ccc(-c2cc(C(=O)NCc3cnn(C)c3C)c3cc(Br)ccc3n2)cc1 | inactive: 24.8% | 
COc1cc(O)c(C(CCN2CCOCC2)c2ccc(N(C)C)cc2)c(OC)c1 (stereo unspecified) | inactive: -36.5% | 
Cc1cccc(C)c1NC(=O)C(NS(=O)(=O)c1cccs1)c1ccccc1 (stereo unspecified) | inactive: 0.638% | 
COc1cccc(N2CCN(C(=O)c3cc4c(s3)-c3ccccc3OC4)CC2)c1 | inactive: 0.725% | 
CCOc1ccc(C(=O)Nc2ccc3oc(-c4ccc5ccccc5c4)nc3c2)cc1 | inactive: -36.2% | 
Cc1ccc(/C=C2\SC(=S)N(CCC(=O)NNS(=O)(=O)c3ccccc3)C2=O)cc1 | inactive: -139% | 
Cc1ccc(N2C(=O)CS/C2=N\C(=S)Nc2ccccc2)cc1 | inactive: -51.9% | 
CN(Cc1ccc(F)cc1)S(=O)(=O)c1nnc(NC(=O)c2ccccc2Br)s1 | inactive: 21.7% | 
